Hit rate of the full screen: of about 48,000 compounds, about 1,200 (2.5%) were called active. Inconclusive results (about 2%) are left out.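 The calls were made as follows: active = activation of at least 60% and not above a set upper limit (about 1 call in 100 departs from these limits); inconclusive = activation of 40% to 60%, or above that upper limit; inactive = activation under 40%.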 The list shows a part of the results.
Target: Probable G-protein coupled receptor 32 (Homo sapiens) (UniProt O75388)
Experiment: qHTS for Agonists of Human Resolvin D1 Receptor DRV1; also: 0% is about no effect
Details: CHO-K1 GPR32 beta-arrestin PathHunter luminescence, 90 min; at 76.9 µM; active compounds read high; zero percent set by DMSO-only wells
Summary of the method: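 Engineered CHO-K1 line co-expressing GPR32-ProLink and EA-beta-arrestin. Compound treatment lasted 90 min at 37 °C. Luminescence was recorded after 1 h with substrate at ambient temperature, relative to DMSO basal wells.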

Sequence of UniProt O75388 (O75388 whole entry, looked up): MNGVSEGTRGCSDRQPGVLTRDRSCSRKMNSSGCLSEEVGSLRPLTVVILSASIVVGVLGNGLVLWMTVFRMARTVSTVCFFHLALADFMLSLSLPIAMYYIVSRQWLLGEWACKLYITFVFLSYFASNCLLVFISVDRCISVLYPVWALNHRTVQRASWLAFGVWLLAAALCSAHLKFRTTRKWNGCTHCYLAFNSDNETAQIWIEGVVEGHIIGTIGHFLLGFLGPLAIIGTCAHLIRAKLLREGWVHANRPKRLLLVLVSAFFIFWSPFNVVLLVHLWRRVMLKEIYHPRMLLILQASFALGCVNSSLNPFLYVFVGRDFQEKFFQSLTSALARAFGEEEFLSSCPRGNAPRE

SMILES	activation
CCCCC(CC)CNC(=O)CN(C)S(=O)(=O)c1ccc2c(c1)c(=O)n(C)c(=O)n2C (centres undefined)	inactive: 10.4%
COc1ccc(NC(=O)CSC2=Nc3ccccc3C3=NC(CCC(=O)NCc4ccc(F)cc4)C(=O)N23)cc1Cl (centres undefined)	inactive: -14.7%
Cc1cc(NC(=O)CCNS(=O)(=O)c2ccc3c(c2)CCCC(=O)N3)ccc1Br	active: 100%
Cc1ccc(CN(C(=O)COc2ccc(Cl)cc2)c2ccccn2)o1	inactive: 18.6%
COc1cccc(N2CCN(C(=O)C3CCN(S(=O)(=O)c4cccc5nonc45)CC3)CC2)c1	inactive: -9.08%
Cc1nn(C)c2c1c(-c1ccccc1)cc(=O)n2Cc1ccccc1Cl	inactive: -20.5%
COc1ccc(CCNC(=O)Cn2nc(C)n3c(cc4cc(F)ccc43)c2=O)cc1OC	inactive: -5.91%
CCOc1ccccc1NC(=O)c1c(NCc2ccc(C)o2)sc2c1CCC(C)C2 (centres undefined)	inactive: 10.5%
CCCCN(C)C(=O)Cn1c(C2CC(=O)N(c3ccc(C)cc3)C2)nc2ccccc21 (centres undefined)	inactive: 3.73%
Cc1ccc(C)c(N2CCN(C(=O)c3cc4c(=O)n(Cc5ccco5)ccc4nc3C)CC2)c1	inactive: -22.2%
COc1cccc(C(=O)Nc2cccc(NC(=O)c3ccc(Cl)cc3Cl)c2)c1	inactive: -10.3%
COc1ccc(S(=O)(=O)Nc2ccc3oc4c(c3c2)C(=O)CC(C)(C)C4)cc1	active: 64.3%
COC(=O)c1cc(S(=O)(=O)NCC2CCN(Cc3ccc(C)cc3)CC2)cn1C	inactive: 5.98%
CCOc1ccc(CNC(=O)CCCn2nc(C)c3sc4ccccc4c3c2=O)cc1	inactive: -19.2%
CCC(C)Nc1sc(S(=O)(=O)CC)nc1S(=O)(=O)c1ccc(C)cc1 (centres undefined)	inactive: -17%
Cc1ccc(C)c(NC(=O)Cn2c(=O)nc(-c3ccccc3)c3ccccc32)c1	inactive: -11.1%
CCCOc1ccc(-c2nn(-c3ccccc3)cc2C2NC(=O)NC(C)=C2C(=O)OC)cc1 (centres undefined)	inactive: -8.94%
CCc1ccc(C(=O)c2cn(CC(=O)Nc3cc(OC)ccc3OC)c3ccc(C)cc3c2=O)cc1	inactive: 19.6%
Cc1cccc(NS(=O)(=O)c2ccc3c(c2)[C@H]2C=CC[C@H]2[C@@H](c2ccc(F)cc2)N3)c1	inactive: -26.4%
COc1ccc(-c2cccc(NS(=O)(=O)c3ccc(C)s3)c2)nn1	inactive: 2.98%
COCCCNC(=O)c1oc2c(c1C)-c1nn(Cc3ccc(Cl)cc3)cc1CC2	inactive: -3.99%
Cn1cc(CCC(=O)NCc2ccc(Cl)cc2)c2ccccc21	inactive: -20.2%
Cc1cc(C)cc(NS(=O)(=O)c2ccc(-n3cccn3)cc2)c1	inactive: 7.11%
CCOc1cc(CNc2ccc(C(=O)O)cc2)ccc1OCc1ccccc1	inactive: -0.148%
O=C(O)c1c(-c2ccccc2)oc2ccc(OCc3ccc(Cl)c(Cl)c3)cc12	inactive: 2.35%
CC1CCC(Nc2ncnc3onc(-c4ccc(F)cc4)c23)CC1 (centres undefined)	inactive: 13.9%
COc1cccc(-n2c(=O)c3c(C)c(C)sc3n(CC(=O)Nc3ccccc3OC)c2=O)c1	inactive: -15.1%

SMILES	activation
CCOc1cccc(C(=O)N(Cc2ccc(N(C)C)cc2)CC2CCCO2)c1 (centres undefined)	inactive: -20.4%
CCc1ccc(CNCc2c(C(=O)O)c(C)n(Cc3c(F)cccc3Cl)c2C)cc1	active: 95%
Cn1c(=O)n(C)c2cc(N3CCOCC3)c(NS(=O)(=O)c3ccc(C(C)(C)C)cc3)cc21	inactive: -4.29%
Cc1ccccc1CC1C(=O)Nc2ccc(Br)cc21 (centres undefined)	inactive: -26.8%
CC1CCN(S(=O)(=O)c2ccc3c(ccc(=O)n3CC(=O)Nc3ccc(C(C)C)cc3)c2)CC1	inactive: 8.68%
CCc1ccccc1NC(=O)N1CCC(CN2CCc3ccccc3C2)CC1	inactive: -23%
Cc1ccc(C(=O)CCC(=O)Nc2ccc(C)cc2C)cc1	inactive: -5.92%
CCOc1ccc(N(C(=O)c2ccccc2F)S(=O)(=O)c2ccc3c(c2)n(C)c(=O)n3C)cc1	inactive: -13.4%
CCOC(=O)c1c(-c2ccc(C)cc2)csc1NC(=O)c1cc(-c2ccc(Cl)cc2)on1	inactive: -3.68%
Cc1ccc(CNC(=O)C2CCCCN2S(=O)(=O)c2ccc(F)cc2)cc1 (centres undefined)	inactive: 29.1%
Cc1ccc(-c2nc(-c3cc4cccc(OCc5ccc(F)cc5)c4oc3=O)no2)cc1	inactive: 15.2%
Cc1ccc(O)c2ncccc12	inactive: -40.2%
Cc1ccc(NC(=O)CSc2nc(-c3ccc(C(C)(C)C)cc3)nc3cc(=O)[nH]n23)cc1C	inactive: 1.55%
CSc1ncc(C(=O)Nc2cccc(C)c2C)c(-c2ccccc2)n1	inactive: -11.1%
COc1ccc(CNC(=O)C2CCN(S(=O)(=O)c3ccc(F)cc3)CC2)cc1	inactive: -1.47%
COC(=O)c1ccc2c(c1)N(Cc1cc(C)ccc1C)C(=O)c1ccccc1S2	inactive: -20%
CC(CNC(=O)c1ccc(CSc2nc3ccncc3n2Cc2ccc(F)cc2)cc1)c1ccccc1 (centres undefined)	inactive: -6.06%
CCN1CCc2nc3sc(C(=O)c4ccccc4)c(N)c3cc2C1	inactive: -14.5%
CCN(c1ccccc1)S(=O)(=O)c1nnc(NC(=O)C(C)(C)C)s1	inactive: -0.689%
Cc1nc2nc(NCc3cccc(Cl)c3)[nH]n2c(=O)c1Cc1ccccc1	inactive: -0.663%
CCOc1ccc2nc(N3CCCC(C(=O)NCCCOC)C3)sc2c1 (centres undefined)	inactive: 5.97%
COC(=O)c1ccc(Cn2c(SCc3ccccc3F)nc3ccncc32)cc1	inactive: -5.85%
CCOc1ccc(CCNC(=O)Cn2c(=O)c3cccn3c3ccc(F)cc32)cc1OCC	inactive: -20%
COc1ccc(-c2cc3ccc(O)c(CN4CCCC(C)C4)c3oc2=O)cc1 (centres undefined)	inactive: 3.15%
Cc1ccc(Cl)cc1-n1ncc2c(NCc3ccc(F)cc3)ncnc21	inactive: 26.4%
COc1ccc(OCCn2c(C(C)Oc3ccccc3)nc3ccccc32)cc1 (centres undefined)	inactive: -16.4%
CC1C(=O)Nc2ccc(S(=O)(=O)NCc3ccc(N(C)C)cc3)cc2NC1=O (centres undefined)	inactive: -9.96%

Source: PubChem BioAssay AID1346428 (National Center for Advancing Translational Sciences (NCATS), 2018)
